Here are results for 25 compounds from the antibiotic and cytotoxicity screens of Wong et al. (2023).

The structures appear in SMILES notation. This is one part of the list.

In one assay the test system is HSkMC. The assay is described as follows: cytotoxicity call (relative viability < 0.9). Particulars: 10 µM.
Another assay deals with HepG2. The assay is described as follows: cytotoxicity call (relative viability < 0.9). Particulars: 10 µM.
For the next assay, the system named is S. aureus RN4220. The assay is described as follows: growth inhibition call (relative growth <= 0.2). The note with it: 50 µM.

With `O=C(NS(=O)(=O)c1ccccc1)c1nnc[nH]1`, the cytotoxicity call in the assay with HSkMC and with HepG2 was “inactive” throughout. Further, the growth inhibition call with S. aureus RN4220 is “inactive”.

As to `C[C@H]1CCCCO[C@H](CN(C)Cc2ccncc2)[C@@H](C)CN([C@@H](C)CO)C(=O)c2cc(NS(=O)(=O)c3ccc(Cl)cc3)ccc2O1`, the cytotoxicity call in the assay on HSkMC and in the assay with HepG2 was “inactive” throughout. In addition, the growth inhibition call in the assay with S. aureus RN4220 was “inactive”.

Take `COc1ccc(NC(=O)N(C)C[C@H]2OCc3ccccc3-c3c(n(C)c4ccccc34)C(=O)N([C@@H](C)CO)C[C@H]2C)cc1`: the cytotoxicity call in the assay on HSkMC and with HepG2 was “inactive” each time. For the same compound, the growth inhibition call in the assay with S. aureus RN4220 is “inactive”.

For `C[C@H](CO)N1C[C@H](C)[C@H](CN(C)S(=O)(=O)c2cccs2)Oc2ccc(NS(C)(=O)=O)cc2C1=O`, the cytotoxicity call in the assay on HSkMC and with HepG2 was “inactive” in each case. Moreover, the growth inhibition call in the assay with S. aureus RN4220 is “inactive”.

In the case of `COCC(=O)Nc1ccc2c(c1)OC[C@H](C)N(Cc1ccccc1OC)C[C@H](C)[C@@H](OC)CN(C)C2=O`, the cytotoxicity call with HSkMC and with HepG2 was “inactive” throughout. In addition, the growth inhibition call in the assay with S. aureus RN4220 is “inactive”.

In the case of `C[C@@H]1CN([C@@H](C)CO)C(=O)Cc2cc(NC(=O)C3CC3)ccc2O[C@@H]1CN(C)C(=O)Nc1ccc(F)cc1`, the cytotoxicity call with HSkMC and with HepG2 was “inactive” in each case. Also, the growth inhibition call in the assay on S. aureus RN4220 was “inactive”.

`Cc1ccc(Cn2c3ccccc3c3ccccc32)cc1`: the cytotoxicity call in the assay with HSkMC and in the assay on HepG2 was “inactive” each time. Moreover, the growth inhibition call with S. aureus RN4220 was “inactive”.

Regarding `C[C@@H]1CCCCO[C@@H](CN(C)S(=O)(=O)c2cccs2)[C@H](C)CN([C@@H](C)CO)C(=O)c2cc(NC(=O)Nc3ccc4c(c3)OCO4)ccc2O1`, the cytotoxicity call with HSkMC and in the assay on HepG2 was “inactive” throughout. Besides, in the assay on S. aureus RN4220, the growth inhibition call was “inactive”.

`CN(C)CCCNC(=O)C[C@@H]1CC[C@@H]2[C@H](COC[C@H](O)CN2S(=O)(=O)c2ccc(F)cc2)O1`: the cytotoxicity call with HSkMC and in the assay on HepG2 was “inactive” each time. Besides, the growth inhibition call with S. aureus RN4220 is “inactive”.

On to `O=C(/C=C/c1ccccc1)c1ccc(O[C@@H]2O[C@H](CO)[C@@H](O)[C@H](O)[C@H]2O)cc1O`, for which the cytotoxicity call in the assay on HSkMC and in the assay on HepG2 was “inactive” throughout. In addition, in the assay with S. aureus RN4220, the growth inhibition call is “inactive”.

In the case of `C[C@H](CO)N1C[C@H](C)[C@@H](CN(C)Cc2ccc3c(c2)OCO3)Oc2ncc(Br)cc2C1=O`, the cytotoxicity call in the assay with HSkMC and in the assay with HepG2 was “inactive” each time. The growth inhibition call in the assay on S. aureus RN4220 is “inactive”.

For the compound `NC[C@H]1O[C@H](O[C@H]2[C@H](O[C@@H]3O[C@H](CO)[C@@H](O)[C@H]3O)[C@@H](O)[C@H](N)C[C@@H]2N)[C@H](N)[C@@H](O)[C@@H]1O`, the cytotoxicity call with HSkMC and in the assay with HepG2 was “inactive” in each case. Besides, the growth inhibition call with S. aureus RN4220 was “inactive”.

Take `C[C@@H]1CN([C@@H](C)CO)C(=O)c2cc(NC(=O)C3CCCCC3)ccc2O[C@@H](C)CCCCO[C@@H]1CN(C)C(=O)Nc1ccc(C(F)(F)F)cc1`: the cytotoxicity call in the assay on HSkMC and in the assay with HepG2 was “inactive” in each case. The growth inhibition call in the assay with S. aureus RN4220 was “inactive”.

Turning to `CCOCC(=O)NS(=O)(=O)c1ccccc1`, the cytotoxicity call with HSkMC and in the assay on HepG2 was “inactive” each time. Also, the growth inhibition call with S. aureus RN4220 is “inactive”.

Turning to `C[C@H](CO)N1C[C@H](C)[C@@H](CN(C)Cc2ccc(F)cc2)Oc2ncc(C#Cc3cccnc3)cc2C1=O`, the cytotoxicity call with HSkMC and in the assay on HepG2 was “inactive” in each case. Also, in the assay on S. aureus RN4220, the growth inhibition call was “inactive”.

For `C[C@@H]1CCCCO[C@@H](CN(C)CC2CCCCC2)[C@H](C)CN([C@H](C)CO)C(=O)c2cc(NC(=O)Nc3ccc(F)cc3)ccc2O1`, the cytotoxicity call with HSkMC is “inactive”. Moreover, the cytotoxicity call in the assay with HepG2 is “active”. In addition, the growth inhibition call in the assay with S. aureus RN4220 was “inactive”.

Take `Cc1noc(C)c1S(=O)(=O)N(C)C[C@@H]1OCCCC[C@H](C)Oc2ccc(NS(C)(=O)=O)cc2C(=O)N([C@H](C)CO)C[C@@H]1C`: the cytotoxicity call in the assay with HSkMC and in the assay with HepG2 was “inactive” in each case. In addition, the growth inhibition call in the assay with S. aureus RN4220 was “inactive”.

For `C[C@@H]1CCCCO[C@H](CN(C)Cc2ccncc2)[C@H](C)CN([C@@H](C)CO)C(=O)c2cc(NC(=O)Nc3ccccc3)ccc2O1`, the cytotoxicity call with HSkMC and with HepG2 was “inactive” throughout. Further, in the assay on S. aureus RN4220, the growth inhibition call is “inactive”.

`Cc1ccc(-c2ccc3c(c2)O[C@@H](CN(C)Cc2cncnc2)[C@H](C)CN([C@H](C)CO)S3(=O)=O)cc1`: the cytotoxicity call in the assay with HSkMC and in the assay on HepG2 was “inactive” each time. Moreover, in the assay on S. aureus RN4220, the growth inhibition call was “inactive”.

`C[C@@H]1CN([C@H](C)CO)C(=O)c2cccc(NC(=O)NC3CCCCC3)c2O[C@@H]1CN(C)Cc1ccc(Oc2ccccc2)cc1`: the cytotoxicity call in the assay with HSkMC and in the assay with HepG2 was “inactive” in each case. Moreover, in the assay with S. aureus RN4220, the growth inhibition call is “inactive”.

For the compound `Cc1noc(C)c1NC(=O)Nc1ccc2c(c1)C(=O)N([C@H](C)CO)C[C@H](C)[C@@H](CN(C)Cc1ccc(C(=O)O)cc1)OCCCC[C@@H](C)O2`, the cytotoxicity call with HSkMC and in the assay with HepG2 was “inactive” in each case. Also, the growth inhibition call with S. aureus RN4220 is “inactive”.

For the compound `COc1ccc(S(=O)(=O)N(C)C[C@@H]2OCCCC[C@@H](C)Oc3ccc(NS(=O)(=O)c4cn(C)cn4)cc3C(=O)N([C@H](C)CO)C[C@@H]2C)cc1`, the cytotoxicity call in the assay with HSkMC and in the assay with HepG2 was “inactive” each time. The growth inhibition call with S. aureus RN4220 is “inactive”.

On to `CO[C@@H]1CN(C)C(=O)c2cc(NS(=O)(=O)CC(F)(F)F)ccc2OC[C@@H](C)N(C(=O)c2ccc3c(c2)OCO3)C[C@@H]1C`, for which the cytotoxicity call in the assay with HSkMC and with HepG2 was “inactive” each time. In addition, the growth inhibition call with S. aureus RN4220 was “inactive”.

`C[C@H](CO)N1C[C@H](C)[C@@H](CN(C)C(=O)Nc2ccccc2)Oc2cc(C#C[C@@H](C)O)ccc2S1(=O)=O`: the cytotoxicity call with HSkMC and with HepG2 was “inactive” throughout. The growth inhibition call in the assay with S. aureus RN4220 is “inactive”.

Turning to `COCc1cc(C)[nH]c(=O)c1C#N`, the cytotoxicity call in the assay on HSkMC (human skeletal muscle cells) and in the assay with HepG2 was “inactive” each time. Besides, the growth inhibition call with S. aureus RN4220 is “inactive”.
